Two substances from PMC11142363 can be followed below.

Protein sequences, listed by entry. Tags and fused reporters are not part of them.
UniProt Q13148: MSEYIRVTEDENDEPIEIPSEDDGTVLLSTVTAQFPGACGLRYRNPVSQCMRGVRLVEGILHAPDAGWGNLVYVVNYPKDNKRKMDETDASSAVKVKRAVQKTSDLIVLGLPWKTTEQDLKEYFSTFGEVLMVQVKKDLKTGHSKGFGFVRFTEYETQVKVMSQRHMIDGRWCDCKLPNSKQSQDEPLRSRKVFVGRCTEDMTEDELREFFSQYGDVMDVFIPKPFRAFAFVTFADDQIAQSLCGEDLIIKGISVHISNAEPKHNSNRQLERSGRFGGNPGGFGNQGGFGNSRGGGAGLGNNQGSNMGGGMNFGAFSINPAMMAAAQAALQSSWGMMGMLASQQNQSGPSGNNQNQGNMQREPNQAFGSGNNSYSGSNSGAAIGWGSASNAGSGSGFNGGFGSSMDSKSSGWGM
UniProt P40692: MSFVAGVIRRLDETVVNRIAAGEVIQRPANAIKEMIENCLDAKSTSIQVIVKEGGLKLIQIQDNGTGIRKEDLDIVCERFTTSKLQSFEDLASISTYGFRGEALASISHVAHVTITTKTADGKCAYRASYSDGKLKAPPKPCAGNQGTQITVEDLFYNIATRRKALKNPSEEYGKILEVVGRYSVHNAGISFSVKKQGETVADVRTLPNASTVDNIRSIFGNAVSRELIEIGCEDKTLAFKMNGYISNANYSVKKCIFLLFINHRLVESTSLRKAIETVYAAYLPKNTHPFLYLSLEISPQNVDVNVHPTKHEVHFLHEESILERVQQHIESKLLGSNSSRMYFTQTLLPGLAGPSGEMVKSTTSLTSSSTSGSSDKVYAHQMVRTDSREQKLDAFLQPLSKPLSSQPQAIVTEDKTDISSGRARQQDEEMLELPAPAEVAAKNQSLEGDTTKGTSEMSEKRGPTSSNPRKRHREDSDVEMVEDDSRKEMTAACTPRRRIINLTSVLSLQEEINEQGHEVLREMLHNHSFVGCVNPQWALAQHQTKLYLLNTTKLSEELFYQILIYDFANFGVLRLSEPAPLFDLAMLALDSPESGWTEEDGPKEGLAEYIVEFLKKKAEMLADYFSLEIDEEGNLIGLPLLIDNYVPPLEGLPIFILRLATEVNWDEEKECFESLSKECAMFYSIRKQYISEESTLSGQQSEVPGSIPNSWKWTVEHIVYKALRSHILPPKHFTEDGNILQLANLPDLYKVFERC
UniProt P52701: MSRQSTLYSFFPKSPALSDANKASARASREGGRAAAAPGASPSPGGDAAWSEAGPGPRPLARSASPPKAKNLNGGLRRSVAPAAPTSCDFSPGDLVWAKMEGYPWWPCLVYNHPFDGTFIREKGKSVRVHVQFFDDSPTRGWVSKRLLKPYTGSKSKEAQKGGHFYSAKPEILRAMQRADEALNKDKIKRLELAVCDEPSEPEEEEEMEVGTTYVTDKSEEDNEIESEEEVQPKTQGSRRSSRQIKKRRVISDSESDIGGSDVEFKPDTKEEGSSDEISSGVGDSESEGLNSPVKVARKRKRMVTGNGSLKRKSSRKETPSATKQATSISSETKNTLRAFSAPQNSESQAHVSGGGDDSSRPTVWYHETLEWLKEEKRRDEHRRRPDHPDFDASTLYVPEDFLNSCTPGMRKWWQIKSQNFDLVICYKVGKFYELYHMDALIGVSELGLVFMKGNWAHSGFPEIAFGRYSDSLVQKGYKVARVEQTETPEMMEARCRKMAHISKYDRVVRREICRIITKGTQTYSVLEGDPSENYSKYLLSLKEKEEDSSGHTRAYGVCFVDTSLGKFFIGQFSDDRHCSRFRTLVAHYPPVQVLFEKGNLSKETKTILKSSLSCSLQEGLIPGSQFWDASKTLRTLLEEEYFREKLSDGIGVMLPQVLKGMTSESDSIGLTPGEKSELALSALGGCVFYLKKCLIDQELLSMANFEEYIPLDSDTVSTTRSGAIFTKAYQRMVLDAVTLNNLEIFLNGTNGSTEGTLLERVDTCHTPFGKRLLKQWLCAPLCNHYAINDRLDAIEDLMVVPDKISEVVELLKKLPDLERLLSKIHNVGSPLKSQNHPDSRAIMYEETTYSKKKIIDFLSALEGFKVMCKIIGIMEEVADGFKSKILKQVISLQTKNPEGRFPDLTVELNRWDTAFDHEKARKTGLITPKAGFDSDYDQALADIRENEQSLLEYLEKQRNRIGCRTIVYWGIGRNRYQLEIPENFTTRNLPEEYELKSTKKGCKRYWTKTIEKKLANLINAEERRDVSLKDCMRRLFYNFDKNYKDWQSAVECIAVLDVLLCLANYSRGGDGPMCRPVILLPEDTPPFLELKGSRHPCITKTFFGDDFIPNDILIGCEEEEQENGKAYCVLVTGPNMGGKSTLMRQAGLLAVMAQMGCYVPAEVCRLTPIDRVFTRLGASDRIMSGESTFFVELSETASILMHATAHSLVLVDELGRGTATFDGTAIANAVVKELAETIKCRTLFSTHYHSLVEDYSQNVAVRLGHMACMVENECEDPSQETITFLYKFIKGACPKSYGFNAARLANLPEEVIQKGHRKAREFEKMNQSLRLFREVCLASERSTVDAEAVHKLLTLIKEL

In test [1] the target is TAR-DNA binding protein 43 (TDP43) (human (endogenous in SH-SY5Y; endogenous in human spinal cord tissue)) (UniProt Q13148). Briefly: proximity ligation; PLA on ventral horn of lumbar spinal cord tissue of ALS-affected patients.
For test [2] the target is unchanged. Put plainly: proximity ligation; PLA on ventral horn of lumbar spinal cord tissue of age-matched controls.
Test [3] has the same target. Briefly: co-IP; Pierce Co-IP kit; 1 mg total lysate of MMS-treated differentiated SH-SY5Y cells, overnight at 4°C on resin with covalently linked anti-TDP43 antibody; Western blot with anti-MLH1 and anti-MSH6.
The target is the same in test [4]. Put plainly: co-IP; as a3, control immunoprecipitates (cells without MMS treatment).
For test [5], the target named is MLH1 (human (endogenous in SH-SY5Y; endogenous in human spinal cord tissue)) (UniProt P40692). Briefly: co-IP; reverse CoIP with anti-MLH1 and anti-MSH6 antibodies; lysate of MMS-treated differentiated SH-SY5Y cells.
Test [6] has as its target MSH6 (human (endogenous in SH-SY5Y; endogenous in human spinal cord tissue)) (UniProt P52701). Described as above.
Test [7] deals with MLH1 (human (endogenous in SH-SY5Y; endogenous in human spinal cord tissue)) (UniProt P40692). Briefly: co-IP; reverse CoIP with anti-MLH1 and anti-MSH6 antibodies; lysate of differentiated SH-SY5Y cells without MMS treatment.
In test [8] the target is MSH6 (human (endogenous in SH-SY5Y; endogenous in human spinal cord tissue)) (UniProt P52701). The description is as above.

These are yes or no findings as the source states them, for the method shown. In cells and extracts the contact can be indirect. Some results given as binding are weak or reduced against the parent protein; the word gives no strength.

As to MSH6 (from UniProt P52701 1-1360), the binding result was “binds” in test [1], “binds weakly” in test [2], “binds” in test [3] and “no binding (condition: cells without MMS treatment)” in test [4].

On to “TAR-DNA binding protein 43 (TDP43) (from UniProt Q13148 1-414)”, for which the binding result is “binds” in test [5], “binds” in test [6], “no binding (condition: cells without MMS treatment)” in test [7] and “no binding (condition: cells without MMS treatment)” in test [8].
